Results reported in PubChem BioAssay AID1508624 (National Center for Advancing Translational Sciences (NCATS), 2021).
The campaign covered roughly 48,000 compounds. About 120 (0.25%) were called active. Another 4% or so got no clear call; they are omitted. Calls come from the whole dose curve; as a rule, active = well fitted activation curve with a large enough effect; inconclusive = small, poorly fitted or top-dose-only effect, or another doubt; inactive = no such curve, though single readings can be large or run the other way. The list shows a part of the results.

Experiment: Primary qHTS for Identification of Small Molecule Activators of Huntingtin-Antisense Promoter Activity; note: nearly all actives have a fitted effect of over 55% in size
Settings: HEK293 HTT-AS promoter firefly luciferase reporter, 24 h; series mostly up to 57.5 µM; activity change, positive = activation: at the top concentration
In short: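 HEK293 cells carrying firefly luciferase reporters were seeded at 2,500 per well in Opti-MEM and cultured for 24 h. They were then treated with compounds at up to 57.5 uM final for 24 h at 37 degrees C before Dual-Glo luminescence readout.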
Potency is the fitted concentration of half-maximal effect.

| SMILES | Potency | activity change, positive = activation |
| --- | --- | --- |
| CC1CCN(C(=O)c2cc(-c3ccc(Cl)cc3)on2)CC1 | active: 2000 nM |  |
| CCCOc1cccc(C(=O)N(Cc2cc(OC)c(OC)c(OC)c2)C2CCS(=O)(=O)C2)c1 (stereo unspecified) |  | inactive: 1.42% |
| Cc1ccc2nc(N(CCCN(C)C)C(=O)c3ccc(Br)s3)sc2c1 |  | inactive: -43.6% |
| Cc1ccc(OCCn2nnc3sc4c(c3c2=O)CCC(C(C)(C)C)C4)cc1 (stereo unspecified) |  | inactive: -14.7% |
| CCn1c(CN2CCC(C)CC2)nc2cc(NC(=O)COc3ccc([N+](=O)[O-])cc3)ccc21 |  | inactive: -29.1% |
| CC(C)c1ccc(NC(=O)c2cccn2-c2nnc(N3CCCCC3)s2)cc1 |  | inactive: -21.1% |
| COc1ccc(C2=Nc3ccc(C)cc3NC(c3ccc(Cl)cc3)=N2)cc1 |  | inactive: 11.2% |
| Cc1ccc(Cl)cc1N1C(=O)N(Cc2ccc(C#N)cc2)c2ccccc2S1(=O)=O |  | inactive: -33.7% |
| COc1ccc(Cl)cc1NC(=O)CCCn1c(C)c2cnn(-c3ccccc3)c(=O)c2c1C |  | inactive: -11.4% |
| COc1ccc(CNC(=O)c2cccc(NC(=O)N3CCSc4ncccc43)c2)cc1 |  | inactive: -21.6% |
| COc1ccc(-c2noc(N3CCC(C(=O)Nc4ccc(C)c(F)c4)CC3)n2)cc1OC |  | inactive: -25% |
| COc1cccc(Cn2c(=O)n(-c3ccc(Br)cc3F)c(=O)c3sc4ccccc4c32)c1 |  | inactive: -14.7% |
| CCOc1cccc2cc(-c3nc4sc5c(c4c(=O)[nH]3)CCC(C)C5)c(=O)oc12 (stereo unspecified) |  | inactive: -1.93% |
| CCCCNC(=O)CSc1nc2ccccc2nc1Cc1ccc(Cl)cc1 |  | inactive: -4.5% |
| Cc1ccc(NC(=O)CC2Nc3cccc4cccc(c34)NC2=O)cc1 (stereo unspecified) |  | inactive: -29.1% |
| COc1ccc(NC(=O)CCNS(=O)(=O)c2cccc3nsnc23)cc1OC |  | inactive: -6.49% |
| COC(=O)c1ccc(Cn2c(SCc3cccc(C)c3)nc3ccncc32)cc1 |  | inactive: 0.208% |
| Cc1cc(C)c(/C=C/c2onc(C)c2S(=O)(=O)N2CCC(C(=O)N3CCN(c4ccccc4)CC3)CC2)c(C)c1 |  | inactive: 6.66% |
| CCOC(=O)c1sc2ncn(CC(=O)Nc3ccc(C)cc3C)c(=O)c2c1C |  | inactive: -8.85% |
| Cc1ccc(-c2ccc(=O)n(C(C)C(=O)Nc3ccccc3Cl)n2)cc1C (stereo unspecified) |  | inactive: -20.4% |
| CCn1cc(C(=O)O)c(=O)c2cc(F)c(N3CCN(C)CC3)cc21 |  | inactive |

| SMILES | Potency | activity change, positive = activation |
| --- | --- | --- |
| CCCCNC(=O)C(CC)Sc1nnc(-c2ccc(OC)c(OC)c2)c(-c2ccc(OC)c(OC)c2)n1 (stereo unspecified) |  | inactive: 2.89% |
| COc1cccc(NC(=O)c2cn(C3CCCCC3)c(=O)c3c2c2ccccc2n3C)c1 |  | inactive: -15.6% |
| CC1CCc2nc3ncn(CC(=O)Nc4cccc(C#N)c4)c(=O)c3cc2C1 (stereo unspecified) |  | inactive: 16.5% |
| COc1ccc(S(=O)(=O)N(CC(=O)N2CCC(C)CC2)c2ccc(C)cc2)cc1 |  | inactive: -26.7% |
| COc1ccccc1-c1nn(CCC(=O)Nc2cccc(C(C)=O)c2)c2nc(C)cc(C)c12 |  | inactive: -33.6% |
| COc1ccc(C(=O)NCC(c2cccs2)S(=O)(=O)c2ccc(C)cc2)cc1 (stereo unspecified) |  | inactive: -25.8% |
| COc1cc(Cl)c(C)cc1NC(=O)CN1c2ccccc2S(=O)(=O)c2ccccc21 |  | inactive: -34.2% |
| Cc1cc(N2CCC(C)CC2)nc2ccc(NC(=O)CCC(=O)N3CCN(c4cccc(C(F)(F)F)c4)CC3)cc12 |  | inactive: -8.52% |
| CCc1ccccc1Nc1nn2c(=O)c3ccc(C(=O)Nc4cc(C)cc(C)c4)cc3nc2s1 |  | inactive: -14.1% |
| CCOC(=O)c1cccc(NC(=O)CCCn2c(C)c3cnn(-c4ccccc4)c(=O)c3c2C)c1 |  | inactive: -20.1% |
| COc1cc(C2CC(=O)Nc3c2c(=O)n(C)c(=O)n3C)cc(OC)c1OC (stereo unspecified) |  | inactive: 4.09% |
| Cc1cccc(-n2ncc(C(=O)N3CCC(C)CC3)c2C2CCN(C(=O)OC(C)(C)C)CC2)c1 |  | inactive: 3.48% |
| CCCCn1c(CNC(=O)c2ccc(OC)cc2)nnc1SCC(=O)Nc1ccccc1 |  | inactive: -29.7% |
| Cc1ccc(CNC(=O)CCC(=O)N2CC(C)Sc3ccccc32)cc1 (stereo unspecified) |  | inactive: -0.92% |
| COc1ccc(-c2cc(C(C)=O)c(C)n2CCC(=O)NCc2ccc(F)cc2)cc1 |  | inactive: -12.3% |
| Cc1ccc(NC(=O)c2cc3c(=O)[nH]c4ccccc4c3n2C)cc1F |  | inactive: -13.3% |
| COc1ccc(CCNC(=O)NCc2noc3ccc(C)cc23)c(OC)c1 |  | inactive: -26.4% |
| CCN(CC)c1cc2c(cc1F)c(=O)c(S(=O)(=O)c1ccccc1)cn2Cc1ccccc1 |  | inactive: -22.8% |
| CC[C@]12CCCN3CCc4c(n(c5ccccc45)C(=O)C1)[C@@H]32 |  | inactive: -22.7% |
| CCOC(=O)c1c(S(=O)(=O)NCC(=O)N2CCN(c3ccccc3OC)CC2)c(C)n(C)c1C |  | inactive: -3.17% |
| CC(=O)c1cccc(NS(=O)(=O)c2c(C)nc3sc(C)cn3c2=O)c1 |  | inactive: -30.1% |

| SMILES | Potency | activity change, positive = activation |
| --- | --- | --- |
| CCOc1ccc(S(=O)(=O)N2CCN(c3ccccc3)CC2)cc1C(N)=O |  | inactive: -6.59% |
| CC(C)N(C(=O)Cn1cc(S(=O)(=O)Cc2ccc(C(F)(F)F)cc2)c2ccccc21)C(C)C |  | inactive: -24.2% |
| Cc1ccc(Nc2c(-c3ccccc3O)nc3ccc(Br)cn23)cc1 |  | inactive: 2.34% |
| COc1ccc2c(Sc3ccc(Cl)cc3)c(C(=O)NCCCN3CCCCC3)[nH]c2c1 |  | inactive: -8.54% |
| CCOc1ccc(-n2c(=O)c3c(C)c(C(=O)N(C)C)sc3n(CC(=O)Nc3c(C)cc(C)cc3C)c2=O)cc1 |  | inactive: -11.4% |
| Cc1cccc(NC(=O)CSc2nc3c([nH]c4ccccc43)c(=O)n2C)c1 |  | inactive: -26% |
| Cc1ccc(CN(C(=O)COc2ccc(C)c(C)c2)C2CCS(=O)(=O)C2)o1 (stereo unspecified) |  | inactive: -14.7% |
| COc1ccc(S(=O)(=O)Nc2cc(-c3cn4ccccc4n3)ccc2C)cc1 |  | inactive: -13.2% |
| Cc1nn(C)c2c1c(C(F)(F)F)cc(=O)n2CC(=O)NCc1ccccc1Cl |  | inactive: -25.8% |
| Cc1ccc(CC(=O)Nc2c(C(=O)N3CCN(c4ccccc4F)CC3)oc3ccccc23)cc1 |  | inactive: -21.6% |
| CCc1cccc(CC)c1NC1=NS(=O)(=O)c2ccccc21 |  | inactive: 7.04% |
| CCOc1ccccc1NC(=O)C(C)Sc1nc2c(c(=O)[nH]1)CCCC2 (stereo unspecified) |  | inactive: -11% |
| Cc1ccc(NS(=O)(=O)c2ccc3c(c2)NC(=O)CCS3)c(Br)c1 |  | inactive: -33.6% |
| CCOC(=O)c1ccccc1NC(=O)CCc1c(C)nc2ncnn2c1C |  | inactive: -5.03% |
| CCOCCCNC(=O)CCc1nnc2ccc(N3CCN(c4cccc(OC)c4)CC3)nn12 |  | inactive: 3.55% |
| Cc1ccc(NCc2nnc3n2CCCCC3)cc1Cl |  | inactive: 8.16% |
| CN1C(C(=O)Nc2ccc(F)cc2F)=CC(c2cccs2)=NS1(=O)=O |  | inactive: -26.7% |
| CCn1nc(-c2ccccc2)c(-c2ccccc2)c(C(=O)OCCOC)c1=O |  | inactive: -22.4% |
| Cc1ccc2c(=O)cc(C(=O)Nc3nnc(C)s3)oc2c1 |  | inactive: 9.81% [at 11.5 µM, percent change from vehicle, -100% = no light] |
